From PubChem BioAssay AID1508642 (National Center for Advancing Translational Sciences (NCATS), 2021)
Screen size: about 43,000 compounds; about 200 (0.47%) were called active. Inconclusive results (about 12%) are left out. Calls come from the whole dose curve; as a rule, active = well fitted cell-killing curve with a large enough effect; inconclusive = small, poorly fitted or top-dose-only effect, or effect the other way; inactive = flat fitted curve, though single readings scatter. Some of the results follow.

Experiment: Cell viability qHTS assay in S16 Pmp22-F2sN cells; note: nearly all actives have a fitted effect of over 65% in size
Settings: S16 Pmp22-F2sN Schwann cells (luciferase reporters placed in the Pmp22 gene) viability, CellTiter-Glo, 24 h; series mostly up to 57.5 µM; activity change, negative = cytotoxicity: at the top concentration
Summary of the method: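 CellTiter-Glo counter-screen, qHTS, 1536-well. Cells: S16(c9) Pmp22-F2sN, 500-1,000/well in DMEM + 10% FBS. Cpd 23 nL pin transfer, 24 h, 37C/5% CO2. Read: luminescence, CCD imager.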
% is set by controls: 0 for no effect and ±100 for the full control effect.

Compound	activity change, negative = cytotoxicity
CCOc1ccc(-c2ncnn2-c2sc3c(c2C#N)CCCCC3)cc1	inactive: -2.15%
CCCCNC(=O)C(Cc1ccccc1)NS(=O)(=O)c1ccc2c(c1)c(=O)n(C)c(=O)n2C (stereo unspecified)	inactive: -0.865%
CCn1c(=N)c(C(=O)NCc2ccccc2)cc2c(=O)n3cc(C)ccc3nc21	inactive: 18.2%
Cc1oc(-c2ccc(C(=O)NCc3ccc(Cl)cc3)cc2)nc1CS(=O)(=O)c1ccccc1	inactive: -11.3%
COc1ccc(Cn2ccc3nc(C)c(C(=O)Nc4cc(C)cc(C)c4)cc3c2=O)cc1	inactive: 5.88%
Cc1nc2ccccc2c(=O)n1-c1ccc(NC(=O)c2cccc([N+](=O)[O-])c2)cc1	inactive: 3%
CSc1ncc(C(=O)Nc2c(C)cccc2C)c(-c2ccccc2)n1	inactive: 2.43%
COc1ccccc1CCNC(=O)c1ccc(-c2nc(CSc3ccc(C)cc3)c(C)o2)cc1	inactive: -12.7%
Cc1ccc(C)c(NC(=O)c2cc(S(=O)(=O)N3CCCc4ccccc43)ccc2F)c1	inactive: -5.08%
Cc1cc(C)c(OCC(=O)N(Cc2ccco2)Cc2ccco2)c(C)c1	inactive: -16.2%
CCCCOc1cccc(C(=O)Nc2cccc(-c3nc4ncccc4o3)c2C)c1	inactive: -6.2%
CCOC(=O)C1=C(C)NC(=O)NC1c1cn(-c2ccccc2)nc1-c1ccc(OCC)cc1 (stereo unspecified)	inactive: -3.42%
Cc1ccc(NC(=O)C2CCCN(c3ncnc4onc(-c5ccc(F)cc5)c34)C2)c(Cl)c1 (stereo unspecified)	inactive: 1.88%
Cc1cccc(N2CCN(C(=O)CN3C(=O)COc4ccc(S(=O)(=O)N5CCCCCC5)cc43)CC2)c1C	inactive: 1.61%
CSc1ncc(C(=O)N2CCN(c3cc(C)ccc3C)CC2)c(C)n1	inactive: -14.1%
CCC(C)NC(=O)Cn1ccc2cc(S(=O)(=O)N3CCCCC3)ccc21 (stereo unspecified)	inactive: -0.523%
CCCCCSc1nnc(-c2ccc(Br)cc2)o1	inactive: -0.966%
Cc1ccc(Cl)cc1-n1c(=O)c2sc3ccccc3c2n(Cc2ccccc2)c1=O	inactive: -0.866%
CCOc1cc(-c2nnc(SCC(=O)NC3CCCC3)nc2-c2ccc(OC)c(OCC)c2)ccc1OC	inactive: -27.2%
CC(C)c1ccc(-c2nc(C(N)=O)c3c(n2)n(-c2ccc4c(c2)OCO4)c(=O)n3C)cc1	inactive: 16.6%
O=C(Nc1cccc(F)c1)[C@H](CSCc1ccccc1)N1Cc2ccccc2C1=O	inactive: 2.69%
CCOc1ccc(NC(=O)Cn2cc(S(=O)(=O)NC)c(S(=O)(=O)NC)c2)cc1	inactive: 8.25%
COc1ccc(NC(=O)C2CCN(S(=O)(=O)c3ccc4[nH]c5c(c4c3)CCCCC5)CC2)cc1	inactive: -3.27%
CC(C)CCN1C(=O)c2ccccc2CC1(C)C(=O)NC1CCC(C)CC1 (stereo unspecified)	inactive: 1.94%

Compound	activity change, negative = cytotoxicity
O=C(CSc1nccn1C1CCCC1)Nc1ccc(C(F)(F)F)cc1	inactive: -19.6%
Cc1ccc(CNC(=O)C2CCN(S(=O)(=O)c3ccc4[nH]c(=O)ccc4c3)CC2)cc1	inactive: -2.21%
Cc1nc2nc[nH]n2c(=O)c1CCC(=O)Nc1ccc(F)cc1	inactive: -9.05%
CCC(C)NC(=O)CSc1nc2cc3c(cc2c(=O)n1CCCCCC(=O)NCc1ccc2c(c1)OCO2)OCO3 (stereo unspecified)	inactive: -2.04%
CCOc1ccc(NC(=O)Cn2c(=O)n(-c3ccccc3)c(=O)c3ccc(C(=O)NCc4ccc5c(c4)OCO5)cc32)cc1	inactive: -18.5%
Cc1ccccc1S(=O)(=O)Cc1ccc(C(=O)NC2CCC(C)CC2)o1 (stereo unspecified)	inactive: 1.5%
CC1(C)C(=O)N(CC(=O)Nc2cccc(F)c2)c2ccc(S(=O)(=O)N3CCCCC3)cc21	inactive: -2.6%
Cc1nn(-c2ccccc2)c2c1N(CC(=O)N1CCN(c3ccc(F)cc3)CC1)C(=O)CS2	inactive: -14%
COc1cccc2cc(C(=O)Nc3ccc(F)c(F)c3)c(=O)oc12	inactive: 0.964%
O=C(Cn1c(=O)n(Cc2cccs2)c(=O)c2cccnc21)Nc1ccc(F)cc1	inactive: -2.84%
Cc1cc(-c2ccc(C)c(S(=O)(=O)NC3CCCCC3)c2)on1	inactive: -11.3%
CCOc1ccc(-n2ccnc2SCC(=O)Nc2nc3ccc(C)cc3s2)cc1	inactive: 2.91%
Cc1ccc(C(=O)NC2=NC(c3ccc(C)cc3)CC(=O)N2)cc1 (stereo unspecified)	inactive: 4.66%
Cc1ccc2c(c1)-c1ncc(C(=O)c3ccccc3O)cc1CO2	inactive: 8.08%
Cc1cc(C)cc(NC(=O)CSc2nc(-c3ccccc3)c3cc(F)ccc3n2)c1	inactive: 15.4%
CCCCCOC(=O)CSc1ncnc2sc3c(c12)CCC(C)C3 (stereo unspecified)	inactive: -0.594%
CC(=O)c1ccc(NC(=O)c2cc3sccc3n2Cc2ccc(F)cc2)cc1	inactive: 7.81%
Cc1cc(C)cc(NC(=O)c2cc(CN3CCCC3)on2)c1	inactive: -3.03%
COc1ccccc1CNC(=O)CCC1N=C2c3ccccc3N=C(SCc3ccc(C)cc3C)N2C1=O (stereo unspecified)	inactive: -23.8%
COc1ccc(NC(=O)CN(c2cc(C)cc(C)c2)S(=O)(=O)c2c(C)noc2C)cc1Cl	inactive: -25.4%
Fc1cccc(-n2ncc3c2ncn2nc(Cc4ccccc4)nc32)c1	inactive: 7.3%
Cc1ccc2nc3sc(C(=O)NCCCN(C)c4ccccc4)cc3cc2c1	inactive: 20.6%
Cc1ccc(CNC(=O)CN2C(=O)COc3ccc(S(=O)(=O)Nc4ccccc4)cc32)cc1	inactive: 3.07%
CC(C)(C)OC(=O)N1CCC(c2nnc(SCc3cccc(Cl)c3)o2)CC1	inactive: -25.2%

Compound	activity change, negative = cytotoxicity
COc1ccc(-c2nc(SCC(=O)Nc3ccc4c(c3)OCCO4)c(-c3ccc(C)cc3)[nH]2)cc1OC	inactive: -5.19%
COc1ccc(NC(=O)CSc2ccc3nc(-c4ccccc4)cn3n2)cc1OC	inactive: 2.55%
CC(C)NC(=O)c1nn(-c2ccccc2F)nc1CO	inactive: -0.708%
Cc1ccccc1Nc1c(-c2ccc(N3CCOCC3)cc2)nc2ccccn12	inactive: -13.2%
COc1ccccc1NC(=O)CCCc1nnc2n(C)c(=O)c3sccc3n12	inactive: -26.7%
CCOC(=O)c1cc(S(=O)(=O)NCc2ccc(C)cc2)[nH]n1	inactive: 0.165%
O=C(Nc1ccc(Oc2ccccc2)cc1)C1CCN(S(=O)(=O)c2ccc(Cl)cc2)CC1	inactive: 2.83%
CCOc1ccc(CCNC(=O)c2ccc3c(c2)c(C)c(C)n3Cc2ccccc2)cc1OCC	inactive: -20.5%
Cc1ccc(SCC(=O)Nc2ccc3oc(-c4ccccc4C)nc3c2)cc1	inactive: 6.65%
COc1ccc(-n2c(=O)c3ccccc3n(CC(=O)Nc3ccccc3OC)c2=O)cc1	inactive: -3.38%
COc1cc(OC)cc(C(=O)Nc2cc3c(cc2N2CCCC2)n(C)c(=O)c(=O)n3C)c1	inactive: -0.609%
CSc1ccc(CCNC(=O)CCn2c(=O)c3cccn3c3ccc(F)cc32)cc1	inactive: 18.1%
CCOC(=O)c1c(NC(=O)c2cc3ccccc3c(=O)o2)sc2c1CCC(C)C2 (stereo unspecified)	inactive: 1.07%
CC(=O)c1ccc(NC(=O)c2cnn(-c3cccc(F)c3)c2-n2cccc2)cc1	inactive: -1.39%
COc1ccc(S(=O)(=O)c2c(O)c3ccc(C(=O)NCc4ccc(F)cc4)cc3[nH]c2=O)cc1	inactive: 0.832%
Cc1ccc(CNC(=O)c2cc(C)nc3c2c(C)nn3-c2ccc(C)cc2)cc1	inactive: 4.12%
Cc1ccc2c(CC(=O)Nc3c(C(=O)c4ccc(C)c(F)c4)oc4ccccc34)coc2c1	inactive: 3.66%
CCOc1ccc(N2CC(NC(=O)c3cccs3)CC2=O)cc1 (stereo unspecified)	inactive: 11.4%
CCc1ccc(NC(=O)[C@H](Cc2ccccc2)N2Cc3ccccc3C2=O)cc1	inactive: 2.3%
COc1cc(NC(=O)CCc2c(C)nn(-c3ccc4nnc(C)n4n3)c2C)cc(OC)c1OC	inactive: 1.94%
Cc1ccc(S(=O)(=O)n2nc(-c3ccccc3)nc2NCc2ccc(Cl)cc2)cc1	inactive: 4.14%
O=C1CC(c2nc(-c3ccc(Cl)cc3)no2)CN1c1ccc2c(c1)OCCO2 (stereo unspecified)	inactive: 0.911%
O=C(CSc1nc2c([nH]c3ccccc32)c(=O)n1-c1ccccc1)N1CCc2ccccc21	inactive: 13.3%
O=C(CSc1nccn1-c1ccc(Cl)cc1)Nc1ccc(Cl)c(Cl)c1	inactive: -8.92%

Compound	activity change, negative = cytotoxicity
COc1cc(NC(=O)N2c3ccccc3Sc3ccccc32)cc(OC)c1	inactive: -16.7%
CCOC(=O)N1CCc2c(sc3c2c(=O)n(CCc2ccccc2)c(=O)n3CC(=O)Nc2ccc(C)cc2)C1	inactive: 3.53%
O=C(NCc1cccc(Br)c1)c1cnn(-c2ccc(F)cc2)c1-n1cccc1	inactive: 11.5%
CC(=O)c1ccc(NC(=O)c2cc(-c3ccc(C)s3)nc3ccccc23)cc1	inactive: 23.5%
CCCOC(=O)c1c(NC(=O)C(C)Sc2nc(-c3ccccc3)cc(C(F)(F)F)n2)sc(C(=O)N(C)C)c1C (stereo unspecified)	inactive: -21.4%
CN1CCc2c(sc(NC(=O)CSc3ccccc3)c2-c2nc3ccccc3s2)C1	inactive: 1.85%
Cc1cccc(N2CCN(C(=O)CN3C(=O)CSc4c3c(C)nn4-c3ccccc3)CC2)c1C	inactive: 24.9%
CCOC(=O)c1ccc(NC(=O)CSc2ccc3ccccc3n2)cc1	inactive: -0.683%
COc1ccccc1C(=O)NCC(c1cccnc1)N1CCc2ccccc2C1 (stereo unspecified)	inactive: -14.7%
COC(=O)c1ccc(NC(=O)CCn2cnnn2)cc1	inactive: -0.819%
CCN(CCCNC(=O)c1nn(-c2ccc(OC)cc2)c(=O)c2c1c1ccccc1n2C)c1ccccc1	inactive: 8.09%
CCCCNC(=O)c1ccc2c(c1)ncn2-c1cc(OC)ccc1OC	inactive: -8.34%
Cc1c(Cl)cccc1-n1ncc(C(=O)Nc2ccc(Br)cc2F)c1C1CCNCC1	inactive: -22%
O=C(Nc1ccccc1F)c1ccc2c(Cl)c3c(nc2c1)CCC3	inactive: -0.217%
CCCNc1ccc(-c2nc(-c3ccccn3)no2)cc1[N+](=O)[O-]	inactive: 8.93%
CCc1cccc(NC(=O)CCNS(=O)(=O)c2cccc3nonc23)c1	inactive: 5.94%
COc1ccccc1NC(=O)C1=C(C)Nc2nnnn2C1c1ccc(C(F)(F)F)cc1 (stereo unspecified)	inactive: 0.628%
Cc1ccc(-n2nnnc2CNC(=O)c2cc(C(F)(F)F)cc(C(F)(F)F)c2)cc1C	inactive: -13.3%
COc1cccc(CNC(=O)COc2cc(=O)n(C)c3ccccc23)c1	inactive: -2.51%
O=C(Nc1cccc(C(F)(F)F)c1)c1cc(CN2CCOCC2)on1	inactive: -0.311%
COc1ccc(S(=O)(=O)Nc2ccc(-c3cn4c(C)csc4n3)cc2)cc1	inactive: -20.9%
Cc1ccc(N2CCN(S(=O)(=O)c3cccc4ccccc34)CC2)cc1Cl	inactive: -17.1%
COc1ccccc1S(=O)(=O)Cc1ccc(C(=O)NCc2ccc(Cl)cc2)o1	inactive: 2.75%
COc1ccccc1NC(=O)c1sc2nc(C)c(C(=O)Nc3ccc(C)cc3C)c(-c3ccco3)c2c1N	inactive: -1.14%
